# Results as given in paper PMC4336329 (PLoS ONE, 2015).
# The whole screen tested about 310,000 compounds, of which about 14,000 (4.5%) showed an effect of 50% or more. The effect is printed as a negative number. Some of the results follow.
# Molecular target: human ether-à-go-go-related gene (hERG) potassium channel (human, UniProt Q12809)
# Experiment: primary screen, population patch clamp on CHO cells stably expressing hERG
# 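Also: peak tail current of the secondary pulse compared with the same well before compound.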
# Chain of human ether-à-go-go-related gene (hERG) potassium channel (Q12809 whole entry, looked up): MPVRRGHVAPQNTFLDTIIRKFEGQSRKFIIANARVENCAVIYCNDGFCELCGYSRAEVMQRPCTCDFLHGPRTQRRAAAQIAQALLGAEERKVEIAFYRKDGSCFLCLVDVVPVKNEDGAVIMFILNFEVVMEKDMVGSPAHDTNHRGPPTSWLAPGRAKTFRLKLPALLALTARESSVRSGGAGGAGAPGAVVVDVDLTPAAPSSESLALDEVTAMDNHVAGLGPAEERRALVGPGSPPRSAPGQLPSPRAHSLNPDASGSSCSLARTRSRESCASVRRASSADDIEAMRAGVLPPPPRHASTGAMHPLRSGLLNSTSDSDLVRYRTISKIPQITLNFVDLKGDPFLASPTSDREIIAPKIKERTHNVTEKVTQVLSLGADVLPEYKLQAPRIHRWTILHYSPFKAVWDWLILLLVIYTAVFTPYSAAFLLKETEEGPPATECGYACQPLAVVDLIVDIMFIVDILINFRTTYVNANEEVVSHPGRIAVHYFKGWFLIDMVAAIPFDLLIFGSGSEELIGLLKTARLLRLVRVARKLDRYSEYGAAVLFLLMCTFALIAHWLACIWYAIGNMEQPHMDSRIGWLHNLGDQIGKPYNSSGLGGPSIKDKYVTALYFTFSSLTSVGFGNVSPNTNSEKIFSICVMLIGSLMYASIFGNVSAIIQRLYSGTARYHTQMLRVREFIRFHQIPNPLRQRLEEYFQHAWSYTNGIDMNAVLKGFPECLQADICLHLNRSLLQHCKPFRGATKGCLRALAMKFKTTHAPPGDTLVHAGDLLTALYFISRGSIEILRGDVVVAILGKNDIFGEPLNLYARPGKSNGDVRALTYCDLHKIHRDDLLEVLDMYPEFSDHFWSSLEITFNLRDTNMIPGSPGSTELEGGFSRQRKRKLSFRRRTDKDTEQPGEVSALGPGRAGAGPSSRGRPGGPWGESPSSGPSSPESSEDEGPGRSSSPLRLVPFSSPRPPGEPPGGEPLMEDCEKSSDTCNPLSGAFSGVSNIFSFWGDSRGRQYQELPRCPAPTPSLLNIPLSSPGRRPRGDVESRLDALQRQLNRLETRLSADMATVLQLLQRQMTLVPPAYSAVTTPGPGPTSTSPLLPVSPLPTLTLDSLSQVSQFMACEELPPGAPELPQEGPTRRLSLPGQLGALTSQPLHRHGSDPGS
row,SMILES,"hERG current change (%, negative = inhibition) at 10uM [%]"
1,COc1ccccc1N1CCN(C2CC(=O)N(c3ccccc3)C2=O)CC1 (centres unmarked),24.1
2,O=C(Nc1nnc(SCc2cccnc2)s1)C1CC(=O)N(c2ccc(F)cc2)C1 (centres unmarked),-1.85
3,COc1ccc(OCC(O)CNC(=O)Nc2ccccc2)cc1 (centres unmarked),17.5
4,CCOc1ccccc1C(=O)N/N=C/c1ccoc1,8.57
5,CC(=O)NC1C(=O)N(CC(C)C)c2ccccc21 (centres unmarked),-1.75
6,COc1ccc(OCC(=O)NNC(=O)c2c(-c3ccccc3Cl)noc2C)cc1,8.13
7,Cc1cc2nc(C)n(CCCNC(=O)Nc3ccc(F)cc3)c2cc1C,-49.9
8,CC(=O)Nc1ccc(NC(=O)CN2CCN(c3cccc(C(F)(F)F)c3)CC2)cc1,-12.1
9,O=c1c([N+](=O)[O-])c[nH]c2ccccc12,19.4
10,Cc1c(NC(=S)NC(=O)c2ccco2)cccc1-c1nc2ncccc2o1,13.3
11,Cc1cc(Br)ccc1SCC(=O)OCC(=O)NC(C)c1ccccc1 (centres unmarked),-2.5
12,COc1ccc(COCC(O)CN2CCC(C(N)=O)CC2)cc1 (centres unmarked),9.99
13,O=P1(O)C=C(c2ccccc2)NC(c2ccccc2)=C1,1.46
14,COCCNC(=O)c1n[nH]c2ccccc12,18.1
15,Cl.O=C(CCN1CCCCCC1)c1ccccc1,-21.1
16,Cc1cc(Nc2ccccc2N2CCOCC2)n2ncnc2n1,-17.2
17,CCOC(=O)C1(Cc2cccc(OC)c2)CCCN(C(=O)CCN2CCCO2)C1 (centres unmarked),2.24
18,Cc1ccccc1NC(=O)NCCc1ccc(Cl)cc1,6.29
19,CC(=O)c1cc(C(=O)NC2CCCc3c2cnn3-c2cc(C)cc(C)c2)[nH]n1 (centres unmarked),-23
20,Cc1ccc(/C(N)=N/OC(=O)c2ccc(F)cc2)cc1,17
21,COc1ccc(CNC(=O)c2ccc3c(c2)N(C)CCS3)cc1,-2.44
22,CCCCN(C(=O)c1cccc(-n2cccc2)c1)c1c(N)n(Cc2ccccc2)c(=O)[nH]c1=O,-17.8
23,O=[N+]([O-])c1ccc(N=Nc2ccc(O)cc2O)cc1,28.4

row,SMILES,"hERG current change (%, negative = inhibition) at 10uM [%]"
1,COc1ccccc1N1CCN(C(=O)C(OC(C)=O)c2ccccc2)CC1 (centres unmarked),8.68
2,COc1ccc(-c2nc(NC(=O)c3ccc(OCC(=O)N4CCOCC4)c(OC)c3)sc2C)cc1,2.47
3,Cc1nn(CC(=O)NCCCN2CCOCC2)c(C)c1[N+](=O)[O-],-27.8
4,CCn1c(=O)c2cc(C(=O)N(C)CC(OC)OC)sc2c2ccccc21,0.282
5,CNS(=O)(=O)c1cc(C(=O)O)ccc1OC,17.5
6,Cc1ccc(N2C(=O)N3[C@H](c4ccc(Cl)cc4)[C@@H]4C(=O)N(C5CCCCC5)C(=O)[C@@H]4[C@]3(Cc3ccccc3)C2=O)cc1,13.9
7,CCCCC(=O)NC(c1ccccc1Cl)c1ccc2cccnc2c1O (centres unmarked),15.2
8,O=C(CN1CCN(c2ccccc2O)CC1)Nc1cc(S(=O)(=O)N2CCCC2)ccc1Cl,-38.3
9,Cc1ccc(-n2nc3c(=O)n(C(C)C(=O)NCc4ccco4)nc(C)c3c2C)cc1 (centres unmarked),-41.3
10,Cn1cc(S(=O)(=O)Nc2ccc(Cl)cc2Cl)c(=O)n(C)c1=O,1.76
11,COc1ccc(CNS(=O)(=O)c2ccc(-c3cnc(C4CC4)o3)cc2)cc1,2.88
12,COc1ccc(NCc2nnc(SCC(=O)Nc3ccc(OC)cc3OC)o2)cc1,-9.35
13,O=C(c1cc(COc2ccc(F)cc2Cl)on1)N1CCN(C2CCCCC2)C(=O)C1,-67.9
14,O=c1[nH]c(=O)n(Cc2ccco2)c(O)c1/C=N/N1CCCCCC1,-12.3
15,O=C(c1cnn(C(=O)CN2CCCC2=O)c1)c1ccccc1O,1.85
16,Cc1ccc2c(c1)/C(=C/c1ccccc1C)C(=O)N2,14.4
17,O=C(COC(=O)c1cc(Cl)ccc1O)NCC1CCCO1 (centres unmarked),-1.37
18,O=C(NC1CCCCC1)c1cc(-c2ccc(Cl)cc2)on1,2.02
19,COc1ccc(S(=O)(=O)Nc2ccccc2C(=O)NC(C)(C)C)cc1OC,-0.848
20,Cc1ccc(NC(=O)NC(=O)CSc2nnc(-c3ccc(OC(F)F)cc3)n2N)c(C)c1,3.52
21,COCCN(C(=O)c1csnn1)C(C(=O)NC1CCCCC1)c1ccc(Cl)cc1 (centres unmarked),-6.8
22,O=C(NCCCn1ccnc1)/C(=C\c1ccccc1F)NC(=O)c1ccccc1,-75
23,Cc1ccsc1C(=O)Nc1ccc(OCc2ccccc2)cc1,15.7

row,SMILES,"hERG current change (%, negative = inhibition) at 10uM [%]"
1,Cc1ccc(C(=O)OCC(=O)Nc2ccc(F)c(Cl)c2)o1,17
2,O=C(NC(c1ccccc1)c1ccccc1)C1CCCO1 (centres unmarked),4.58
3,O=C(CCCN1C(=O)/C(=C\c2cccs2)SC1=S)Nc1ccc(O)cc1C(=O)O,2.24
4,Cc1nn(-c2ccccc2)c(Cl)c1/C=N/NC(=O)CNc1n[nH]c(=O)[nH]c1=O,18.5
5,CC(C)Cn1c(N)c(C(=O)COC(=O)C2=COCCO2)c(=O)n(C)c1=O,14.1
6,CCN1CCN(CC(=O)N2CCCC(C(=O)c3ccc(Oc4ccccc4)cc3)C2)CC1 (centres unmarked),-52.7
7,Nc1c(C(=O)Nc2ccc(Cl)cc2)sc2nc(N3CCOCC3)c3c(c12)CCCC3,15.7
8,Cc1cccc(N2CCN(c3nc(C)cc(C)c3C#N)CC2C)c1.Cl (centres unmarked),14.2
9,Cc1cc(C)c(/C=N/n2c(C)cc(C)c(C#N)c2=O)c(C)c1,8.14
10,O=C(Nc1ccc(F)cc1)Nc1nnc(-c2ccco2)s1,30.4
11,O=[N+]([O-])c1ccc(O)c(P(=O)(c2ccccc2)c2ccccc2)c1,16.2
12,Cc1ccc(C(=O)N2CCC(C)CC2)cc1S(=O)(=O)N1CCCCC1,-10.2
13,CSc1ccc(CCNC(=O)CN2C(=O)CCSc3ccccc32)cc1,3.31
14,CCC(=O)c1ccc(OCCn2cncn2)cc1,-10.7
15,COc1ccc2cc(C#N)c(SCC(=O)N3CCCC3)nc2c1,-17.9
16,O=C(NN=C1CCCCC1)c1ccccc1OCc1ccc(F)cc1,8.52
17,CCC(C)NC(=O)c1cc(OC)c(OC)c(OC)c1 (centres unmarked),6.51
18,COc1cccc(C(=O)NC2CCN(CC(=O)NCc3ccccc3OC)CC2)c1,-10.7
19,COC(=O)Nc1ccc(=O)n(Cc2c(Cl)cccc2Cl)c1,3.91
20,O=C(NNS(=O)(=O)c1ccc2ccccc2c1)c1cccs1,-0.742
21,CC1=C(C(=O)OCC2CCCO2)C(c2coc3ccc(Cl)cc3c2=O)C2=C(CCCC2=O)N1 (centres unmarked),-16.3
22,CCCCOc1ccc(N2C(=O)CC(N(O)c3ccccc3)C2=O)cc1 (centres unmarked),11.8
23,CCOc1ccc(NC(=O)CSc2nc3ccccc3c(=O)n2CCCC(=O)N2CCCC2)cc1,-23.8

row,SMILES,"hERG current change (%, negative = inhibition) at 10uM [%]"
1,O=C(NC(=S)N1CCc2ccccc21)c1ccccc1Cl,5.67
2,CCOc1ccc2[nH]c(C)c(CN3CCCCC3)c(=O)c2c1,-13.1
3,CC(=O)Nc1cc([As](=O)(O)O)ccc1O,19.8
4,O=C(c1cc(-c2ccccc2Cl)on1)N1CCN(C(=O)c2ccco2)CC1,-44.2
5,O=C(NN1C(=O)/C(=C\c2ccc(O)c([N+](=O)[O-])c2)SC1=S)c1ccccc1Cl,37
6,CCOC(=O)C1(CCOC)CCN(Cc2nc(-c3cccs3)oc2C)CC1,-30.8
7,CCOC(=O)N1CCN(C(=O)CN(c2ccc(Oc3ccccc3)cc2)S(C)(=O)=O)CC1,-15.4
8,COC(=O)c1ccc(CSc2nc3ccccc3c(=O)n2-c2ccccc2)o1,-7.91
9,Cc1cc2nc3c(c(=O)n2[nH]1)CCCC3,12.8
10,O=C(Cc1ccc(Cl)c(Cl)c1)Nc1cccc(S(=O)(=O)N2CCOCC2)c1,3.1
11,Cc1nn(-c2ccccc2)c(C)c1NC(=O)COc1ccc(C#N)cc1,-36.9
12,COc1cccc(/C=N/Nc2ncnc3c2ncn3Cc2ccccc2)c1O,6
13,Cc1ccc(NC(=O)c2cc(S(=O)(=O)N3CCCC3)cn2C)cc1C,8.58
14,Fc1ccc(C(CCNCc2cccs2)c2ccco2)cc1 (centres unmarked),-66.8
15,CCOc1ccc2nc(NC(=O)Nc3cccs3)sc2c1,18
16,CC(C)n1cnc2cc(NC(=O)c3ccco3)ccc21,-2.78
17,CCNc1nc(NC(C)C)nc(NS(=O)(=O)c2ccc(Cl)cc2)n1,14.7
18,O=C(Nc1ncccc1O)c1ccc(Cl)c(S(=O)(=O)N2CCCCC2)c1,-16.1
19,O=C(NCC1CCCO1)c1ccc([N+](=O)[O-])o1 (centres unmarked),23.4
20,O=C(NCCc1ccccc1)c1cc2ccccc2oc1=O,14.4
